From publication PMC5540273 (PLoS ONE, 2017)
For some assays here: Shown are results outside the selection of strong results, which stands elsewhere. This is a selection; strong and weak results do not stand in their true shares.

system: CSNK1A1L; conditions: concentration: 1 μM,replicates: in singlicate; n = 1
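Also: KINOMEscan kinase panel screen.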

O=C1NC(=O)C(c2ccc(Cl)cc2)=C1Nc1cccc(C(=O)O)c1 [SB-360737] and O=C1NC(=O)C(c2ccc(Cl)cc2)=C1Nc1cccc(O)c1 [SB-333613] are the same in “%Inh” value: 0% for the first, 0% for the second.

Compared with O=C1NC(=O)C(c2ccccc2Cl)=C1Nc1cccc(C(=O)O)c1 [SB-390526], O=C1NC(=O)C(c2ccccc2Cl)=C1Nc1ccccc1 [SB-376715] is lower in “%Inh” value: 10% for the first, 0% for the second.

Compared with O=C1NC(=O)C(c2ccc(Cl)cc2)=C1Nc1ccc(O)c(Cl)c1 [SB-405367], O=C1NC(=O)C(c2ccc(Cl)cc2)=C1Nc1ccccc1 [SB-317661] is lower in “%Inh” value: 5% for the first, 0% for the second.

O=C1NC(=O)C(c2ccccc2)=C1Nc1cc(Cl)c(O)c(Cl)c1 [SB-390530] and O=C1NC(=O)C(c2ccccc2)=C1Nc1ccc(Cl)c(C(=O)O)c1 [SB-390532] are the same in “%Inh” value: 0% for the first, 0% for the second.

Going from Cc1ccc(C)c(Oc2nccc(-c3c(-c4ccc(F)cc4)ncn3C3CCNCC3)n2)c1.O=C(O)C(F)(F)F.O=C(O)C(F)(F)F.O=C(O)C(F)(F)F [SB-284852] to Cc1cc(C)cc(Oc2nccc(-c3c(-c4ccc(F)cc4)ncn3C3CCNCC3)n2)c1.O=C(O)C(F)(F)F.O=C(O)C(F)(F)F.O=C(O)C(F)(F)F [SB-284851], the “%Inh” value falls from 37% to 0%.

Compared with O=C(O)c1ccc(-c2nc(-c3ccc(F)cc3)c(-c3ccncc3)[nH]2)cc1 [SB-202620], CS(=O)(=O)c1ccccc1-c1nc(-c2ccc(F)cc2)c(-c2ccncc2)[nH]1 [SB-213663] is higher in “%Inh” value: 0% for the first, 12% for the second.

COc1cccc(C2=C(Nc3ccc(SC)cc3)C(=O)NC2=O)c1 [SB-331032] and CSc1ccc(NC2=C(c3cccc(Cl)c3)C(=O)NC2=O)cc1 [SB-341528] are the same in “%Inh” value: 0% for the first, 0% for the second.

Going from COc1ccc(C2=C(Nc3cccc(Cl)c3)C(=O)NC2=O)cc1 [SB-326892] to O=C1NC(=O)c2c1c(-c1ccccc1)cc1[nH]c3ccc(O)cc3c21, the “%Inh” value rises from 0% to 45%.

system: CSNK1A1; conditions: concentration: 1 μM,replicates: in singlicate; n = 1

Compared with O=C1NC(=O)C(c2ccc(Cl)cc2)=C1Nc1cccc(C(=O)O)c1 [SB-360737], O=C1NC(=O)C(c2ccc(Cl)cc2)=C1Nc1cccc(O)c1 [SB-333613] is higher in “%Inh” value: 0% for the first, 25% for the second.

Going from O=C1NC(=O)C(c2ccccc2Cl)=C1Nc1cccc(C(=O)O)c1 [SB-390526] to O=C1NC(=O)C(c2ccccc2Cl)=C1Nc1ccccc1 [SB-376715], the “%Inh” value falls from 2% to 0%.

O=C1NC(=O)C(c2ccc(Cl)cc2)=C1Nc1ccc(O)c(Cl)c1 [SB-405367] and O=C1NC(=O)C(c2ccc(Cl)cc2)=C1Nc1ccccc1 [SB-317661] are the same in “%Inh” value: 0% for the first, 0% for the second.

Compared with O=C1NC(=O)C(c2ccccc2)=C1Nc1cc(Cl)c(O)c(Cl)c1 [SB-390530], O=C1NC(=O)C(c2ccccc2)=C1Nc1ccc(Cl)c(C(=O)O)c1 [SB-390532] is lower in “%Inh” value: 30% for the first, 0% for the second.

Compared with Cc1ccc(C)c(Oc2nccc(-c3c(-c4ccc(F)cc4)ncn3C3CCNCC3)n2)c1.O=C(O)C(F)(F)F.O=C(O)C(F)(F)F.O=C(O)C(F)(F)F [SB-284852], Cc1cc(C)cc(Oc2nccc(-c3c(-c4ccc(F)cc4)ncn3C3CCNCC3)n2)c1.O=C(O)C(F)(F)F.O=C(O)C(F)(F)F.O=C(O)C(F)(F)F [SB-284851] is lower in “%Inh” value: 86% for the first, 59% for the second.

First: O=C(O)c1ccc(-c2nc(-c3ccc(F)cc3)c(-c3ccncc3)[nH]2)cc1 [SB-202620]
Second: CS(=O)(=O)c1ccccc1-c1nc(-c2ccc(F)cc2)c(-c2ccncc2)[nH]1 [SB-213663]
The “%Inh” value of the first is lower: 69% for the first, 76% for the second.

Going from COc1cccc(C2=C(Nc3ccc(SC)cc3)C(=O)NC2=O)c1 [SB-331032] to CSc1ccc(NC2=C(c3cccc(Cl)c3)C(=O)NC2=O)cc1 [SB-341528], the “%Inh” value rises from 14% to 23%.

First: COc1ccc(C2=C(Nc3cccc(Cl)c3)C(=O)NC2=O)cc1 [SB-326892]
Second: O=C1NC(=O)c2c1c(-c1ccccc1)cc1[nH]c3ccc(O)cc3c21
The “%Inh” value of the first is lower: 0% for the first, 53% for the second.
